Assay results as given in the supplement of paper PMC9174493.
Some of the results follow. Single values of this set are uncertain. Values with irradiation are relative to irradiated vehicle.

Assays:
A549-Dual [1] = assay: NF-kB reporter (SEAP) activity, viability-corrected, relative to vehicle (fold change vs vehicle); higher = more activation of STING-IRF / NF-kB immune response reporter; conditions: 10 µM
A549-Dual [2] = assay: ISRE reporter (Lucia luciferase) activity, viability-corrected, relative to vehicle (fold change vs vehicle); higher = more activation of STING-IRF / NF-kB immune response reporter; conditions: 10 µM
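Wherever NF-kB reporter (SEAP) activity, viability-corrected, relative to vehicle is given: viability correction based on the alamar blue assay, with concentrations leaving 10% survival or less dropped.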

## CN1C2CC(OC(=O)C(CO)c3ccccc3)CC1C1OC12 (stereo unspecified) [Scopolamine]
A549-Dual [1]; irradiation: 8 Gy/4 fr
  NF-kB reporter: 0.965
A549-Dual [1]; irradiation: none
  NF-kB reporter: 1.15
A549-Dual [2]; irradiation: 8 Gy/4 fr
  ISRE reporter: 0.785
A549-Dual [2]; irradiation: none
  ISRE reporter: 0.597

## CC(=O)NC1CCSC1=O (stereo unspecified) [Citiolone]
A549-Dual [1]; irradiation: 8 Gy/4 fr
  NF-kB reporter: 0.948
A549-Dual [1]; irradiation: none
  NF-kB reporter: 1.2
A549-Dual [2]; irradiation: 8 Gy/4 fr
  ISRE reporter: 0.69
A549-Dual [2]; irradiation: none
  ISRE reporter: 0.506

## C=CCN1CCC23c4c5ccc(O)c4OC2C(=O)CCC3(O)C1C5.Cl (stereo unspecified) [Naloxone HCl]
A549-Dual [1]; irradiation: 8 Gy/4 fr
  NF-kB reporter: 0.756
A549-Dual [1]; irradiation: none
  NF-kB reporter: 0.911
A549-Dual [2]; irradiation: 8 Gy/4 fr
  ISRE reporter: 0.742
A549-Dual [2]; irradiation: none
  ISRE reporter: 0.564

## CN1C(=O)COc2c(C(=O)NC3CN4CCC3CC4)cc(Cl)cc21.Cl (stereo unspecified) [Azasetron HCl]
A549-Dual [1]; irradiation: 8 Gy/4 fr
  NF-kB reporter: 0.607
A549-Dual [1]; irradiation: none
  NF-kB reporter: 0.615
A549-Dual [2]; irradiation: 8 Gy/4 fr
  ISRE reporter: 0.682
A549-Dual [2]; irradiation: none
  ISRE reporter: 0.766

## Br.CN1C2CC(OC(=O)C(CO)c3ccccc3)CC1C1OC12.O.O.O (stereo unspecified) [Scopolamine HBr trihydrate]
A549-Dual [1]; irradiation: 8 Gy/4 fr
  NF-kB reporter: 0.762
A549-Dual [1]; irradiation: none
  NF-kB reporter: 0.451
A549-Dual [2]; irradiation: 8 Gy/4 fr
  ISRE reporter: 0.654
A549-Dual [2]; irradiation: none
  ISRE reporter: 0.416

## C=CC1CN2CCC1CC2C(O)c1ccnc2ccccc12 (stereo unspecified)
A549-Dual [1]; irradiation: 8 Gy/4 fr
  NF-kB reporter: 0.857
A549-Dual [1]; irradiation: none
  NF-kB reporter: 0.509
A549-Dual [2]; irradiation: 8 Gy/4 fr
  ISRE reporter: 0.862
A549-Dual [2]; irradiation: none
  ISRE reporter: 0.579

## CCCCOC(=O)c1ccccc1C(=O)OCCCC [Dibutyl phthalate]
A549-Dual [1]; irradiation: 8 Gy/4 fr
  NF-kB reporter: 0.78
A549-Dual [1]; irradiation: none
  NF-kB reporter: 0.856
A549-Dual [2]; irradiation: 8 Gy/4 fr
  ISRE reporter: 0.687
A549-Dual [2]; irradiation: none
  ISRE reporter: 0.643

## C[N+]1(C)C2CC(OC(=O)C(CO)c3ccccc3)CC1C1OC12.[Br-] (stereo unspecified) [Methscopolamine]
A549-Dual [1]; irradiation: 8 Gy/4 fr
  NF-kB reporter: 0.74
A549-Dual [1]; irradiation: none
  NF-kB reporter: 0.845
A549-Dual [2]; irradiation: 8 Gy/4 fr
  ISRE reporter: 0.67
A549-Dual [2]; irradiation: none
  ISRE reporter: 0.675

## CCN1CC2(OC(=O)c3ccccc3NC(C)=O)CCC(OC)C34C1C(CC23)C1(O)CC(OC)C2CC4C1(O)C2OC (stereo unspecified) [Lappaconitine]
A549-Dual [1]; irradiation: 8 Gy/4 fr
  NF-kB reporter: 0.985
A549-Dual [1]; irradiation: none
  NF-kB reporter: 0.963
A549-Dual [2]; irradiation: 8 Gy/4 fr
  ISRE reporter: 0.977
A549-Dual [2]; irradiation: none
  ISRE reporter: 0.824

## CCC1(c2ccc(N)cc2)CCC(=O)NC1=O (stereo unspecified) [Aminoglutethimide]
A549-Dual [1]; irradiation: 8 Gy/4 fr
  NF-kB reporter: 0.881
A549-Dual [1]; irradiation: none
  NF-kB reporter: 0.853
A549-Dual [2]; irradiation: 8 Gy/4 fr
  ISRE reporter: 0.95
A549-Dual [2]; irradiation: none
  ISRE reporter: 0.843

## CC(C)N(CCNC(=O)CN1CCCC1=O)C(C)C [Pramiracetam]
A549-Dual [1]; irradiation: 8 Gy/4 fr
  NF-kB reporter: 1.12
A549-Dual [1]; irradiation: none
  NF-kB reporter: 2.04
A549-Dual [2]; irradiation: 8 Gy/4 fr
  ISRE reporter: 1.04
A549-Dual [2]; irradiation: none
  ISRE reporter: 1.62

## CC12CCC(=O)C=C1C=CC1C2CCC2(C)C1CCC2(O)CCC(=O)[O-].[K+] (stereo unspecified) [Potassium Canrenoate]
A549-Dual [1]; irradiation: 8 Gy/4 fr
  NF-kB reporter: 1.63
A549-Dual [1]; irradiation: none
  NF-kB reporter: 2.25
A549-Dual [2]; irradiation: 8 Gy/4 fr
  ISRE reporter: 0.646
A549-Dual [2]; irradiation: none
  ISRE reporter: 2.29

## Cl.N=C(N)NN [Aminoguanidine hydrochloride]
A549-Dual [1]; irradiation: 8 Gy/4 fr
  NF-kB reporter: 0.73
A549-Dual [1]; irradiation: none
  NF-kB reporter: 0.727
A549-Dual [2]; irradiation: 8 Gy/4 fr
  ISRE reporter: 0.751
A549-Dual [2]; irradiation: none
  ISRE reporter: 0.764

## CCCCCN(C)CCC(O)(P(=O)([O-])O)P(=O)(O)O.[Na+] [ibandronic acid]
A549-Dual [1]; irradiation: 8 Gy/4 fr
  NF-kB reporter: 0.899
A549-Dual [1]; irradiation: none
  NF-kB reporter: 0.881
A549-Dual [2]; irradiation: 8 Gy/4 fr
  ISRE reporter: 0.975
A549-Dual [2]; irradiation: none
  ISRE reporter: 0.825

## O=[N+]([O-])C(Br)(CO)CO [Bronopol]
A549-Dual [1]; irradiation: 8 Gy/4 fr
  NF-kB reporter: 1.01
A549-Dual [1]; irradiation: none
  NF-kB reporter: 0.972
A549-Dual [2]; irradiation: 8 Gy/4 fr
  ISRE reporter: 0.781
A549-Dual [2]; irradiation: none
  ISRE reporter: 0.753

## CN1CC(C(=O)NC2(C)OC3(O)C4CCCN4C(=O)C(Cc4ccccc4)N3C2=O)CC2c3cccc4[nH]cc(c34)CC21.CS(=O)(=O)O (stereo unspecified) [Dihydroergotamine Mesylate]
A549-Dual [1]; irradiation: 8 Gy/4 fr
  NF-kB reporter: 1.31
A549-Dual [1]; irradiation: none
  NF-kB reporter: 0.806
A549-Dual [2]; irradiation: 8 Gy/4 fr
  ISRE reporter: 1.43
A549-Dual [2]; irradiation: none
  ISRE reporter: 0.877

## CC(=O)OC1CC2CCC3C(CCC4(C)C3CC([N+]3(C)CCCCC3)C4OC(C)=O)C2(C)CC1[N+]1(C)CCCCC1.[Br-].[Br-] (stereo unspecified) [Pancuronium dibromide]
A549-Dual [1]; irradiation: 8 Gy/4 fr
  NF-kB reporter: 0.847
A549-Dual [1]; irradiation: none
  NF-kB reporter: 1.25
A549-Dual [2]; irradiation: 8 Gy/4 fr
  ISRE reporter: 0.692
A549-Dual [2]; irradiation: none
  ISRE reporter: 0.659

## CCC(C)C(C(CC(=O)N1CCCC1C(OC)C(C)C(=O)NC(C)C(O)c1ccccc1)OC)N(C)C(=O)C(NC(=O)C(NC)C(C)C)C(C)C (stereo unspecified) [Monomethyl auristatin E (MMAE)]
A549-Dual [1]; irradiation: 8 Gy/4 fr
  NF-kB reporter: 0.929
A549-Dual [1]; irradiation: none
  NF-kB reporter: 1.65
A549-Dual [2]; irradiation: 8 Gy/4 fr
  ISRE reporter: 0.0733
A549-Dual [2]; irradiation: none
  ISRE reporter: 0.425

## Cl.O=C1CCC2(O)C3Cc4ccc(O)c5c4C2(CCN3CC2CC2)C1O5 (stereo unspecified) [Naltrexone HCl]
A549-Dual [1]; irradiation: 8 Gy/4 fr
  NF-kB reporter: 0.639
A549-Dual [1]; irradiation: none
  NF-kB reporter: 0.846
A549-Dual [2]; irradiation: 8 Gy/4 fr
  ISRE reporter: 0.749
A549-Dual [2]; irradiation: none
  ISRE reporter: 0.796

## CC(C)NCC(O)c1ccccc1Cl.Cl (stereo unspecified) [Clorprenaline HCl]
A549-Dual [1]; irradiation: 8 Gy/4 fr
  NF-kB reporter: 0.86
A549-Dual [1]; irradiation: none
  NF-kB reporter: 0.979
A549-Dual [2]; irradiation: 8 Gy/4 fr
  ISRE reporter: 0.86
A549-Dual [2]; irradiation: none
  ISRE reporter: 0.751

## NCCC(O)(P(=O)([O-])O)P(=O)([O-])O.[Na+].[Na+] [Pamidronate Disodium]
A549-Dual [1]; irradiation: 8 Gy/4 fr
  NF-kB reporter: 0.774
A549-Dual [1]; irradiation: none
  NF-kB reporter: 0.753
A549-Dual [2]; irradiation: 8 Gy/4 fr
  ISRE reporter: 0.75
A549-Dual [2]; irradiation: none
  ISRE reporter: 0.605

## CC[N+](CC)(CC)CC.[Br-] [Tetraethylammonium bromide]
A549-Dual [1]; irradiation: 8 Gy/4 fr
  NF-kB reporter: 0.96
A549-Dual [1]; irradiation: none
  NF-kB reporter: 0.869
A549-Dual [2]; irradiation: 8 Gy/4 fr
  ISRE reporter: 0.864
A549-Dual [2]; irradiation: none
  ISRE reporter: 0.614

## CN1C2CCC1CC(OC(=O)C1C=Nc3ccccc31)C2.Cl (stereo unspecified) [Tropisetron HCl]
A549-Dual [1]; irradiation: 8 Gy/4 fr
  NF-kB reporter: 1.06
A549-Dual [1]; irradiation: none
  NF-kB reporter: 0.808
A549-Dual [2]; irradiation: 8 Gy/4 fr
  ISRE reporter: 1.09
A549-Dual [2]; irradiation: none
  ISRE reporter: 0.788

## CNCC(=O)c1ccc(O)c(O)c1.Cl [Adrenalone HCl]
A549-Dual [1]; irradiation: 8 Gy/4 fr
  NF-kB reporter: 0.697
A549-Dual [1]; irradiation: none
  NF-kB reporter: 1.22
A549-Dual [2]; irradiation: 8 Gy/4 fr
  ISRE reporter: 0.575
A549-Dual [2]; irradiation: none
  ISRE reporter: 0.626
